{"source": "PubChem BioAssay AID1346428", "about": "(National Center for Advancing Translational Sciences (NCATS), 2018)", "note": "“And” between values parts separate entries of the source, which are not always exact repeats. Equal entries are not always repeated. In all, about 48,000 compounds went through this assay and about 1,200 (2.5%) were called active. Another 2% or so got no clear call; they are omitted.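 Rule for the calls: active = activation of at least 60% and not above a set upper limit (about 1 call in 100 departs from these limits); inconclusive = activation of 40% to 60%, or above that upper limit; inactive = activation under 40%.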 This is one part of the list.", "data": [{"target": "Probable G-protein coupled receptor 32 (Homo sapiens) (UniProt O75388)", "sequence (O75388 whole entry, looked up)": "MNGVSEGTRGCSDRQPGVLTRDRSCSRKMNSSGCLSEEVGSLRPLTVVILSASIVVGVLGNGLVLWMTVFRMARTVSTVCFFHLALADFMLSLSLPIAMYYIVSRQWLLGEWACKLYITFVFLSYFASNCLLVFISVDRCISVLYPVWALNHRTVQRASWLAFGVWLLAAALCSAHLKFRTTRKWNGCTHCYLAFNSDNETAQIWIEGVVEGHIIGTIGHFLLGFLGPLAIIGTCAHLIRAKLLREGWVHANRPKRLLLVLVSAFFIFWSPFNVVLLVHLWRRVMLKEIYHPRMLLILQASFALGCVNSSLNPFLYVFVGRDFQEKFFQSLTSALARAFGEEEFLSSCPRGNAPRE", "assay": "qHTS for Agonists of Human Resolvin D1 Receptor DRV1; note: 0% is about no effect", "settings": "CHO-K1 GPR32 beta-arrestin PathHunter luminescence, 90 min; at 76.9 µM; hits give high values; zero percent set by DMSO-only wells", "method_in_brief": "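Cells are plated overnight, treated with compounds in DMSO for 90 minutes at 37 °C, and developed with PathHunter detection reagent for 1 hour before luminescence is read; signal reflects beta-arrestin binding to GPR32 in engineered CHO-K1 cells.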", "values": [{"compound": "CCOc1ccc(NC(=O)c2ccc3[nH]c(C)c(C)c3c2)cc1", "activation": "inactive: 8.68%"}, {"compound": "COc1ccccc1NC(=O)Cn1c(=O)n(Cc2ccccc2)c(=O)c2c1c1cc(C)ccc1n2C", "activation": "inactive: -36.2%"}, {"compound": "O=C(Cn1ccc2cc(S(=O)(=O)N3CCCCC3)ccc21)NCCc1ccccc1Cl", "activation": "inactive: -6.88%"}, {"compound": "Cc1ccccc1NC(=O)Cn1cc(C(=O)c2cccs2)c2ccccc21", "activation": "inactive: -6.21%"}, {"compound": "CCc1ccc(NC(=O)CSC2=Nc3ccccc3C3=NC(CCC(=O)NCc4ccccc4)C(=O)N23)cc1", "note": "(stereo unspecified)", "activation": "inactive: 0.327%"}, {"compound": "CN(C)C(=O)Oc1cccc([N+](C)(C)C)c1", "activation": "inactive: 24.7% and inactive: 2.39%"}, {"compound": "CCCCN(C)C(=O)c1cn(C)c2ccc(S(=O)(=O)N3CCC(C)CC3)cc2c1=O", "activation": "inactive: 13%"}, {"compound": "Cc1ccsc1CN1CCc2nc(Nc3ccccc3)ncc2C1", "activation": "inactive: -9.14%"}, {"compound": "CC(NC(=O)CSc1n[nH]c(-c2ccccc2Cl)n1)c1nc2ccccc2[nH]1", "note": "(stereo unspecified)", "activation": "inactive: 2.32%"}, {"compound": "CCCCC(=O)OC1=C(C(=O)c2ccccc2)N(CCC)S(=O)(=O)c2ccccc21", "activation": "inactive: -11.7%"}, {"compound": "O=C(NCc1ccccc1Cl)c1cc2c(s1)-c1ccc(Cl)cc1SC2", "activation": "inactive: 25%"}, {"compound": "CCSc1nc2c([nH]c3ccccc32)c(=O)n1CC", "activation": "inactive: -21.1%"}, {"compound": "Cc1cccc(NS(=O)(=O)c2c(C)nc3sccn3c2=O)c1C", "activation": "inactive: -10.3%"}, {"compound": "COc1cccc(CNCCNC(=O)c2nonc2N)c1", "activation": "inactive: 13.2%"}, {"compound": "C#Cc1ccc(-c2ccccc2F)cc1", "activation": "inactive: 9.71%"}, {"compound": "CCOC(=O)CSc1nc(-c2ccc(C)cc2C)cc(-c2ccccc2)c1C#N", "activation": "inactive: -38.3%"}, {"compound": "CCOc1ccccc1NC(=O)N1CC(CC)Oc2ccccc21", "note": "(stereo unspecified)", "activation": "inactive: -25.9%"}, {"compound": "Cc1ccc(C(=O)CSc2nc(-c3ccccc3)nc3c2CCCC3)cc1", "activation": "inactive: 0.73%"}, {"compound": "Cc1cccc(CSc2ncc(Cl)c(C(=O)Nc3sc4c(c3C(N)=O)CCCC4)n2)c1", "activation": "inactive: -23.4%"}, {"compound": "COc1cccc(-n2c(=O)c3c(C)c(C)sc3n(CC(=O)NCc3ccc(C)cc3)c2=O)c1", "activation": "inactive: -3.6%"}, {"compound": "CC(=O)N1CCc2c(sc(NC(=O)CSc3ccccc3)c2-c2nc3ccccc3s2)C1", "activation": "inactive: -25.5%"}, {"compound": "CC(C)(C)C(=O)Nc1cccc(-c2cn3cccnc3n2)c1", "activation": "inactive: 46.7%"}, {"compound": "Cc1c(C(=O)NCc2cccc(Cl)c2)sc2ncnc(N(C)C3CCCCC3)c12", "activation": "inactive: -15.3%"}, {"compound": "O=C(Cn1c(=O)nc(-c2ccccc2)c2ccccc21)Nc1cccc(C(F)(F)F)c1", "activation": "inactive: -13%"}, {"compound": "Cc1ccc(Cc2c(C)nc3nc(SCC(=O)NC4CCC(C)CC4)nn3c2C)cc1", "note": "(stereo unspecified)", "activation": "inactive: -15.8%"}, {"compound": "COc1ccc(-c2cn(-c3ccc(C)cc3)c(S(=O)(=O)CC(=O)Nc3ccc(F)cc3)n2)cc1", "activation": "inactive: 46.6%"}, {"compound": "COc1ccccc1NC(=O)c1cc(=O)c2ccc(C)c(C)c2o1", "activation": "inactive: -5.49%"}, {"compound": "CCOC(=O)c1ccc2c(c1)N(CC(=O)N(C)c1ccccc1)C(=O)c1ccccc1S2", "activation": "inactive: -14.6%"}, {"compound": "CCOc1ccc(CCNC(=O)c2cc3c(=O)oc4ccc(C)cc4c3s2)cc1OCC", "activation": "inactive: -2.03%"}, {"compound": "Cc1nn(CCC(=O)Nc2cc(F)ccc2F)c(=O)c2nn(-c3ccccc3)c(C)c12", "activation": "inactive: -5.48%"}, {"compound": "N#C/C(=C\\c1ccc(-c2ccc(C(=O)O)cc2)o1)C(=O)Nc1ccccc1C(=O)O", "activation": "inactive: -1.97%"}, {"compound": "COc1cc(Nc2nc(SCC(=O)c3ccc(Br)cc3)nc3ccccc23)cc(OC)c1", "activation": "inactive: -28.8%"}, {"compound": "O=C(CC1N=C2c3ccccc3N=C(SCc3cccc(Cl)c3)N2C1=O)NCc1ccc2c(c1)OCO2", "note": "(stereo unspecified)", "activation": "inactive: -3.04%"}, {"compound": "CC1CCCCN1C(=O)CSc1n[nH]c(-c2ccccc2Cl)n1", "note": "(stereo unspecified)", "activation": "inactive: 12.9%"}, {"compound": "Cc1cc(C)cc(OCC(=O)Nc2c(C)ccc3nsnc23)c1", "activation": "inactive: -10.7%"}, {"compound": "COc1ccc(S(=O)(=O)c2cnc3ccc(Cl)cc3c2N2CCCCC2C)cc1", "note": "(stereo unspecified)", "activation": "inactive: -36.9%"}, {"compound": "CC1CCCc2sc3nc(SCC(=O)c4ccc(Br)cc4)nc(N)c3c21", "note": "(stereo unspecified)", "activation": "inactive: 17%"}, {"compound": "Cc1ccccc1NC(=O)CSc1nc2nccnc2c(=O)n1CCc1c[nH]c2ccccc12", "activation": "inactive: -10.5%"}, {"compound": "Cc1cccc(N2CCN(C(=O)Cn3nc(C)n4cccc4c3=O)CC2C)c1", "note": "(stereo unspecified)", "activation": "inactive: -3.48%"}, {"compound": "CN(Cc1ccccc1)S(=O)(=O)c1nnc(NC(=O)c2cccc(Cl)c2)s1", "activation": "active: 67.9%"}, {"compound": "COc1ccc(NC(=O)CSc2nc(-c3ccco3)cc(C(F)(F)F)n2)cc1OC", "activation": "inactive: 19.8%"}, {"compound": "CCOc1ccc(N(CC)S(=O)(=O)c2cc(Br)cc3c2N(C(C)=O)C(C)C3)cc1", "note": "(stereo unspecified)", "activation": "inactive: 3.59%"}, {"compound": "Cc1cccc(NC(=O)CSc2nccn2Cc2ccc(F)cc2)c1C", "activation": "inactive: -9.56%"}, {"compound": "CCCCN(C)CCCNC(=O)Cn1ncc2c3ccccc3n(Cc3ccccc3)c2c1=O", "activation": "inactive: 18.7%"}, {"compound": "Cc1ccccc1NC(=O)c1ccc2c(c1)c(C)c(C)n2Cc1ccccc1", "activation": "inactive: -12.5%"}, {"compound": "COc1ccc(S(=O)(=O)N2CCCN(CC(=O)Nc3ccc(NC(C)=O)cc3)CC2)cc1", "activation": "inactive: 3.5%"}, {"compound": "COCc1nc2ccccc2n1CCOc1cccc(C)c1", "activation": "inactive: -0.0427%"}, {"compound": "O=C(CN1N=C(c2ccc(Cl)cc2)CCC1=O)NCCc1ccc(Cl)cc1", "activation": "inactive: -5.12%"}, {"compound": "CC(=O)c1cccc(NC(=O)c2oc3c(c2C)-c2nn(Cc4ccc(Cl)cc4)cc2CC3)c1", "activation": "inactive: -8.33%"}, {"compound": "CCOc1ccccc1CN1CCN(S(=O)(=O)c2ccccc2)CC1", "activation": "inactive: -29.8%"}, {"compound": "CCOC(=O)c1c(-c2ccccc2)oc2ccc(NS(=O)(=O)c3cc(C)c(C)cc3C)cc12", "activation": "inactive: -0.978%"}, {"compound": "Cc1cc(O)c2c(c1)C(=O)c1cc(O)cc(O)c1C2=O", "activation": "inactive: -46.7%"}, {"compound": "Cc1ccc(C(=O)Nc2cc3c(cc2C)n(C)c(=O)c(=O)n3C)cc1", "activation": "inactive: 3.61%"}, {"compound": "COc1ccccc1NC(=O)CSC1=Nc2ccccc2C2=NC(CC(=O)NCc3ccco3)C(=O)N12", "note": "(stereo unspecified)", "activation": "inactive: -4.69%"}, {"compound": "Cc1cccc(CNC(=O)CCn2c(=O)c3cccn3c3ccc(F)cc32)c1", "activation": "inactive: -8.85%"}, {"compound": "CCOc1ccc(CNC(=O)C2Cc3ccccc3N2C(=O)CC)cc1OC", "note": "(stereo unspecified)", "activation": "inactive: -13.4%"}, {"compound": "COc1ccc(NC(=O)c2oc3ccc(S(=O)(=O)N4CCCCC4)cc3c2C)cc1", "activation": "inactive: 14.6%"}, {"compound": "CCCc1nn2c(=O)cc(COC(=O)c3ccccc3NC(=O)COc3ccccc3F)nc2s1", "activation": "inactive: -6.84%"}, {"compound": "CCc1ccc(-n2nc(C)c3c(C)cc(=O)n(Cc4nc(-c5ccccc5)oc4C)c32)cc1", "activation": "inactive: -18.9%"}, {"compound": "Cc1ccc(NC(=O)CN2C(=O)CCc3cc(S(=O)(=O)N4CCOCC4)ccc32)cc1F", "activation": "inactive: 6.98%"}, {"compound": "COc1ccc(OC)c(CNC(=O)c2ccc(Sc3ccc(C)cc3)c(N)c2)c1", "activation": "inactive: -14.5%"}, {"compound": "CCCOC(=O)c1c(NC(=O)c2nc3ncccn3n2)sc(C(N)=O)c1C", "activation": "inactive: 18%"}, {"compound": "Cc1nc2c(C(=O)NCCCN(CC(C)C)CC(C)C)cnn2c(C)c1Cc1c(F)cccc1Cl", "activation": "inactive: -10%"}, {"compound": "Cc1ccccc1CNC(=O)CCCn1c(=O)c2cccn2c2cccnc21", "activation": "inactive: -16.7%"}, {"compound": "CNc1ncnc2c1cnn2-c1ccc(C)c(C)c1", "activation": "inactive: 39.9%"}, {"compound": "Cc1cccc(NC(=O)c2ccc(-n3cnc4cccnc43)cc2)c1C", "activation": "inactive: -5.99%"}, {"compound": "Cc1ccc(N2CC(NC(=O)c3cccs3)CC2=O)cc1C", "note": "(stereo unspecified)", "activation": "inactive: 4.74%"}, {"compound": "Oc1ccccc1-c1nc(/C=C/c2ccccc2Cl)nn1-c1ccccc1", "activation": "inactive: -10.7%"}, {"compound": "Fc1ccc([C@@H]2CCNC[C@H]2COc2ccc3c(c2)OCO3)cc1", "activation": "inactive: 2.87% and inactive: -19.2%"}, {"compound": "COc1cc(NC(=O)c2cccc3c2C(=O)N(C2CCCCC2)C3)cc(OC)c1OC", "activation": "inactive: -32.2%"}, {"compound": "CCc1ccc(C(=O)c2cn(CC(=O)Nc3ccc4c(c3)OCO4)c3ccc(OC)cc3c2=O)cc1", "activation": "inactive: 35.8%"}, {"compound": "Cn1c(C(=O)Nc2cccc(C(F)(F)F)c2)cc2c(=O)n3ccccc3nc21", "activation": "inactive: 4.29%"}, {"compound": "COc1ccc(OC)c(CNC(=O)C(C)n2c(C)c3cnn(-c4ccccc4)c(=O)c3c2C)c1", "note": "(stereo unspecified)", "activation": "inactive: -22.3%"}, {"compound": "CCOc1ccc(NC(=O)C2CCC(CNS(=O)(=O)c3ccc(Br)s3)CC2)cc1", "note": "(stereo unspecified)", "activation": "inactive: 38.7%"}, {"compound": "N.N.O=C(O)C1(C(=O)O)CCC1.[Pt]", "activation": "inactive: -4.23%"}, {"compound": "CCOc1cc(/C=C(\\C#N)C(=O)NCC2CCCO2)ccc1O", "note": "(stereo unspecified)", "activation": "inactive: -30.9%"}, {"compound": "Cc1ccccc1OCc1ccc(-c2nc(C#N)c(NCc3cccnc3)o2)o1", "activation": "inactive: 5.29%"}, {"compound": "CC1=C(c2ccc(C)c(C)c2)S(=O)(=O)N=C1N1CCC(C(=O)N2CCC(C)CC2)CC1", "activation": "inactive: -7.31%"}, {"compound": "O=C(CN1C(=O)COc2ccc(Cl)cc21)Nc1ccc(F)cc1", "activation": "inactive: -4.68%"}, {"compound": "CCN(C(=O)c1nn(-c2ccc(OC)c(Cl)c2)c(=O)c2c1c1ccccc1n2C)c1cccc(C(F)(F)F)c1", "activation": "inactive: -9.56%"}, {"compound": "CCCOc1cccc(C(=O)Nc2cccc3cccnc23)c1", "activation": "inactive: -6.07%"}, {"compound": "O=C(OCc1cc(=O)n2nc(-c3cccs3)sc2n1)c1ccc(Cl)cc1", "activation": "inactive: 3.73%"}, {"compound": "CC(C)OCCCNC(=O)c1ccc(CSc2nc3cccnc3n2Cc2ccccc2)cc1", "activation": "inactive: -5.87%"}, {"compound": "COc1ccc(-c2nc3ccc(NS(=O)(=O)c4ccc(C)cc4)cc3o2)cc1", "activation": "inactive: 7.44%"}, {"compound": "O=c1[nH]cnc2c1ncn2[C@H]1CC[C@@H](CO)O1", "activation": "inactive: -11.3%"}, {"compound": "COC(=O)c1c(SCC(=O)Nc2cc(OC)cc(OC)c2)[nH]c2ccc(C)cc2c1=O", "activation": "inactive: -9.91%"}]}]}
